# Measured values from PubChem BioAssay (Tox21).
# Where “and” joins values, the source holds several entries; their conditions need not be identical. Equal values may be shown once. The shares of active, inactive and inconclusive entries below differ from those in the screen. For some assays here: Where the call is inconclusive, the potency comes from a doubtful curve fit. Calls of active or inactive are those of the source. Unless noted, calls come from the whole dose curve; as a rule, active = well fitted curve in the direction sought with a large enough effect in the repeat runs; inconclusive = weak or mixed curves; inactive = no such curve, though single readings can be large; an effect the other way counts as inactive or inconclusive.
# Columns and labels:
# [1] = qHTS assay for small molecule agonists of the p53 signaling pathway (AID 651631; calls by dose curve; note: nearly all actives have a fitted effect of over 15% in size; note: potency is the fitted concentration of half-maximal effect); conditions: HCT-116 p53RE-bla reporter, beta-lactamase FRET ratio, 16 h; activation: at 73.3 µM (top of the series) unless noted
# How it was run: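 Testing took place in human colorectal HCT-116 cells with stable p53RE-driven beta-lactamase. After 16 h of compound exposure at 37 °C, a FRET substrate was added and fluorescence recorded 2 h later.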
# [2] = qHTS assay for small molecule disruptors of the mitochondrial membrane potential (AID 720635); conditions: HepG2 mitochondrial membrane potential, Mito-MPS dye ratio; ratio activity, negative = MMP loss: at 83.2 µM (top of the series) unless noted; note: potency is the fitted concentration of half-maximal effect
# How it was run: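 HepG2 cells (2,000/well) attached overnight at 37C, then took compound for 1 hr at 37C, 5% CO2. Mito-MPS dye was added for 30 min; fluorescence was read at 490/535 nm (monomers) and 540/590 nm (aggregates).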
# [3] = biological target: Glucocorticoid receptor (Homo sapiens) (UniProt P04150); assay: qHTS assay to identify small molecule antagonists of the glucocorticoid receptor (GR) signaling pathway (AID 720692; active = well fitted inhibition curve with a large enough effect in the signal ratio in the repeat runs, not every such curve was filed as active; inconclusive = weak or mixed curves, or effect the other way; inactive = no such curve, though single readings can be large or run the other way; the % refers to the signal ratio; note: % is set by controls: 0 for no effect and ±100 for the full control effect); conditions: GR-bla HeLa, beta-lactamase FRET ratio, dexamethasone-stimulated, 18 h; activity change, negative = inhibition: at 58.5 µM (top of the series) unless noted
# Sequence of UniProt P04150 (P04150 whole entry, looked up): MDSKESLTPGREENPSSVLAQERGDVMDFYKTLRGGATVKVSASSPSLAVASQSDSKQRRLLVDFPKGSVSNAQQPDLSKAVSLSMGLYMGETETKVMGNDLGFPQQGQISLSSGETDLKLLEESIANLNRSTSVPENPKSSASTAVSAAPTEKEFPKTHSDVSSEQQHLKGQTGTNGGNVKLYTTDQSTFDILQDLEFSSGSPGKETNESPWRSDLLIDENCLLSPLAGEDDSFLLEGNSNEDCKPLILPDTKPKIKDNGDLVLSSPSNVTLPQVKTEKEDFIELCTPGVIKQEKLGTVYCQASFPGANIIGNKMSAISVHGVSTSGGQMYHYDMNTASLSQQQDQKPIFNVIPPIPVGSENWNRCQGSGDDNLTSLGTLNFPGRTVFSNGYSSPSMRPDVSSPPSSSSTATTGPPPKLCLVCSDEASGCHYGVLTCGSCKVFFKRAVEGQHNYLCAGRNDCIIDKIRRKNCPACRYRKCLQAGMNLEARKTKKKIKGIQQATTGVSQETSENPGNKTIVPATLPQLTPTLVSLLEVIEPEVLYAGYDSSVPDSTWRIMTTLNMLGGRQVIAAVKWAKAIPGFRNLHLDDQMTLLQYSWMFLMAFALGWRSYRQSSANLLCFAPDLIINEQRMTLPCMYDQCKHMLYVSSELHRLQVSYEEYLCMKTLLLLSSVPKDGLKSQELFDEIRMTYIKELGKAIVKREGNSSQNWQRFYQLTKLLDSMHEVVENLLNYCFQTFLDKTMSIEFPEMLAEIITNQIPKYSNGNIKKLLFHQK
# How it was run: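 Inhibition of dexamethasone-driven (5 nM final) beta-lactamase expression was measured in GRE-reporter HeLa cells over 18 h at 37C. Fluorescence was read after 2 h with the B/G FRET substrate at room temperature.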
# [4] = qHTS assay for identifying genotoxic compounds that show differential cytotoxicity against isogenic chicken DT40 cell lines with known DNA damage response pathways - wild type cell line (AID 743012); conditions: DT40 wild type chicken cells viability, CellTiter-Glo, 40 h; activity change, negative = cytotoxicity: at 68.4 µM (top of the series) unless noted; note: nearly all actives have a fitted effect of over 60% in size; note: potency is the fitted concentration of half-maximal effect
# How it was run: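 Viability by ATP luminescence (CellTiter-Glo, 30 min RT) after 40 h compound treatment at 37 C/5% CO2, using 300 parental DNA repair-proficient DT40 cells per well.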
# [5] = qHTS assay for identifying genotoxic compounds that show differential cytotoxicity against isogenic chicken DT40 cell lines with known DNA damage response pathways - Rev3 mutant cell line (AID 743014); conditions: chicken DT40 Rev3-/- viability, CellTiter-Glo, 40 h; activity, negative = cytotoxicity: at 68.4 µM (top of the series) unless noted; note: nearly all actives have a fitted effect of over 55% in size; note: potency is the fitted concentration of half-maximal effect
# [6] = qHTS assay to identify small molecule antagonists of the thyroid receptor (TR) signaling pathway - cell viability counter screen (AID 743064); conditions: GH3.TRE-Luc viability, CellTiter-Fluor, 24 h; activity change, negative = cytotoxic: at 70.3 µM (top of the series) unless noted; note: potency is the fitted concentration of half-maximal effect; nearly all actives have a fitted effect of over 50% in size
# How it was run: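 Viability of T3-stimulated (1 nM final) GH3.TRE-Luc cells is measured by CellTiter-Fluor fluorescence after 23.5 h compound exposure at 37 °C plus 30 min reagent incubation.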
# [7] = biological target: Peroxisome proliferator-activated receptor gamma (Homo sapiens) (UniProt P37231); assay: qHTS assay to identify small molecule antagonists of the peroxisome proliferator-activated receptor gamma (PPARg) signaling pathway (AID 743191; calls by dose curve; note: % is set by controls: 0 for no effect and ±100 for the full control effect; nearly all actives have a fitted effect of over 30% in size); conditions: HEK293H PPARg-UAS-bla, beta-lactamase ratio, antagonist, 17 h; ratio activity, negative = inhibition: at 62.6 µM (top of the series) unless noted
# Sequence of UniProt P37231 (P37231 whole entry, looked up): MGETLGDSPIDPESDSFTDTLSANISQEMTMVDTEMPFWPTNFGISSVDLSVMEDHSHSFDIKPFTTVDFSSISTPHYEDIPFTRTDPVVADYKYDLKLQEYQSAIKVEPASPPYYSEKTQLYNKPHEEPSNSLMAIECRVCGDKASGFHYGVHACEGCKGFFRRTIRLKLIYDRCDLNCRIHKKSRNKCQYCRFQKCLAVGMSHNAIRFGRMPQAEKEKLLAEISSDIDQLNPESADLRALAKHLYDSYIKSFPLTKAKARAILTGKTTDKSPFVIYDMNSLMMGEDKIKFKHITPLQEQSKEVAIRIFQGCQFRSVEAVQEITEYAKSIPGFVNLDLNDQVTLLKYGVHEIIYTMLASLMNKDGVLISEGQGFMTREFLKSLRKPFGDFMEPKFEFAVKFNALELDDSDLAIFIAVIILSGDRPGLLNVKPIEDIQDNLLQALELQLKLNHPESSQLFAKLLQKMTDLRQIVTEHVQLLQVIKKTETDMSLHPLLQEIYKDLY
# How it was run: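 GeneBLAzer PPARg UAS-bla HEK293H cells carrying a UAS-driven beta-lactamase reporter were plated at 3000 cells/well, preincubated 5 h at 37C, then given compound for 17 h at 37C; LiveBLAzer B/G FRET substrate was read after 1 h at room temperature.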
# [8] = qHTS assay to identify small molecule agonists of the retinoic acid receptor (RAR) signaling pathway (AID 1159553); conditions: C3RL4 RARE luciferase reporter, agonist, 6 h; activation: at 73.3 µM (top of the series) unless noted; note: potency is the fitted concentration of half-maximal effect
# How it was run: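 Luminescence was measured 30 min after luciferase reagent addition at room temperature. Before that, C3RL4 reporter cells (1,000 per well, plated overnight) were treated with compound for 6 hr at 37 C and 5% CO2.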
# [9] = biological target: Cytochrome P450 1A2 (Homo sapiens) (UniProt P05177); assay: Cytochrome P450 Family 1 Subfamily A Member 2 (CYP1A2) small molecule antagonists: luciferase reporter qHTS assay (AID 1671199); note: nearly all actives have a fitted effect of over 50% in size; note: potency is the fitted concentration of half-maximal effect
# Sequence of UniProt P05177 (P05177 whole entry, looked up): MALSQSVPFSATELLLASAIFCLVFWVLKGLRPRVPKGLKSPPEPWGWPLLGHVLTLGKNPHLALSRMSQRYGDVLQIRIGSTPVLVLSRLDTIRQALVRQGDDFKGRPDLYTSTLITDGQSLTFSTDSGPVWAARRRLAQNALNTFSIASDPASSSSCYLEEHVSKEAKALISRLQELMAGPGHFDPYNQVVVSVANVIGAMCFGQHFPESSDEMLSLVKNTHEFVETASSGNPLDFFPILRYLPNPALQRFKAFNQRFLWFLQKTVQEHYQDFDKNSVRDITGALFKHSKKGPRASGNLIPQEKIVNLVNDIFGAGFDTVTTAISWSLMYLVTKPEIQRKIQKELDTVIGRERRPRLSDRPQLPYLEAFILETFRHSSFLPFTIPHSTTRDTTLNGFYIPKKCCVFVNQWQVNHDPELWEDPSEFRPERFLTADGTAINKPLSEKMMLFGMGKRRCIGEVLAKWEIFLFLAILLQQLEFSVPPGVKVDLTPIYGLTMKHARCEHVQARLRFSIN
# How it was run: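 Luminescence from luciferin formed by CYP1A2 from a proluciferin substrate, read 20 min after detection reagent. Compound was pre-incubated 10 min with enzyme-substrate, and reaction started with NADPH regeneration solution for 1 h at room temperature; furafylline control.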
# [10] = qHTS assay for small molecule agonists of the antioxidant response element (ARE) signaling pathway (AID 743202; active = well fitted activation curve with a large enough effect in the signal ratio in the repeat runs, not every such curve was filed as active; inconclusive = weak or mixed curves, or effect the other way; inactive = no such curve, though single readings can be large or run the other way; the % refers to the signal ratio; note: potency is the fitted concentration of half-maximal effect); conditions: HepG2 ARE-bla reporter, beta-lactamase FRET, 16 h; activation: at 73.3 µM (top of the series) unless noted
# How it was run: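 Steps: seed ARE-bla HepG2 cells (2,000/well); incubate 5 h at 37 C; add compounds by pin tool; incubate 16 h at 37 C; add FRET substrate; read fluorescence after 2 h at RT.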
# [11] = qHTS assay to identify small molecule antagonists of the sonic hedgehog signaling (Shh) pathway (AID 1259369; calls by dose curve; note: potency is the fitted concentration of half-maximal effect; nearly all actives have a fitted effect of over 45% in size)
# How it was run: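 Antagonist mode: compound added to 3T3 Gli1-Luc cells followed by conditioned-medium stimulation, 24 h at 37 C, 5% CO2. Inhibition taken as loss of Gli1-driven luciferase luminescence.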
# [12] = biological target: Progesterone receptor (Homo sapiens) (UniProt P06401); assay: qHTS assay to identify small molecule antagonists of the progesterone receptor (PR) signaling pathway (AID 1346795; active = well fitted inhibition curve with a large enough effect in the signal ratio in the repeat runs, not every such curve was filed as active; inconclusive = weak or mixed curves; the % refers to the signal ratio; note: % is set by controls: 0 for no effect and ±100 for the full control effect); conditions: PR-UAS-bla HEK293T, beta-lactamase FRET ratio, 16 h; activity change, negative = inhibition: at 92.4 µM (top of the series) unless noted
# Sequence of UniProt P06401 (P06401 whole entry, looked up): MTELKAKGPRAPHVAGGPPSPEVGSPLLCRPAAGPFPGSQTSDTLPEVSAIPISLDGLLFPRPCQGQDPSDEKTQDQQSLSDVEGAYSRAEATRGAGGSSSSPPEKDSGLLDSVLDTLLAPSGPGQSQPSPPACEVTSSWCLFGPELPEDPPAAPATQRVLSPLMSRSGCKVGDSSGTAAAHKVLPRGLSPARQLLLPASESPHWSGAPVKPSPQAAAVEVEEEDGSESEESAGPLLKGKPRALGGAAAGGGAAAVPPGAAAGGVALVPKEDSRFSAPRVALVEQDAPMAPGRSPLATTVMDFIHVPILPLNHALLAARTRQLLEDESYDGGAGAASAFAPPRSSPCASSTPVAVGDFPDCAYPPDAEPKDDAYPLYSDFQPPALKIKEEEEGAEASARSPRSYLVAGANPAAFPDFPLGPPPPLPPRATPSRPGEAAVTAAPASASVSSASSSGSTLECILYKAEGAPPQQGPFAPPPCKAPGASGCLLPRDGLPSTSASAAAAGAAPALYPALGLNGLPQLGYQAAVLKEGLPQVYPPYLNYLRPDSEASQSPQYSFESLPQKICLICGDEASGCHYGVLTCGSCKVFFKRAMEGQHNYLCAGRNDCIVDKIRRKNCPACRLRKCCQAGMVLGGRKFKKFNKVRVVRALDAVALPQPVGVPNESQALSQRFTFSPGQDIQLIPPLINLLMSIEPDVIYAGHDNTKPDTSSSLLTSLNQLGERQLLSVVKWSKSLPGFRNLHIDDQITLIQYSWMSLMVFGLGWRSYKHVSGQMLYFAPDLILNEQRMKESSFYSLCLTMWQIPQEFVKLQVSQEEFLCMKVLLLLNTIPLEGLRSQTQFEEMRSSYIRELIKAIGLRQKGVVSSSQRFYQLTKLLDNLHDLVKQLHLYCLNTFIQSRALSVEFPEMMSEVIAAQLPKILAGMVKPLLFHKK
# How it was run: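 Fluorescence intensity measured 2 hr after adding beta-lactamase FRET substrate to PR-UAS-bla HEK293T cells that had been co-treated 16 hr with compound and 1 nM R5020 (final concentration) in 2% charcoal-stripped FBS.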
# [13] = biological target: Cytochrome P450 2C19 (Homo sapiens) (UniProt P33261); assay: Cytochrome P450 Family 2 Subfamily C Member 19 (CYP2C19) small molecule antagonists: luciferase reporter qHTS assay (AID 1671197); note: nearly all actives have a fitted effect of over 65% in size; note: potency is the fitted concentration of half-maximal effect
# Sequence of UniProt P33261 (P33261 whole entry, looked up): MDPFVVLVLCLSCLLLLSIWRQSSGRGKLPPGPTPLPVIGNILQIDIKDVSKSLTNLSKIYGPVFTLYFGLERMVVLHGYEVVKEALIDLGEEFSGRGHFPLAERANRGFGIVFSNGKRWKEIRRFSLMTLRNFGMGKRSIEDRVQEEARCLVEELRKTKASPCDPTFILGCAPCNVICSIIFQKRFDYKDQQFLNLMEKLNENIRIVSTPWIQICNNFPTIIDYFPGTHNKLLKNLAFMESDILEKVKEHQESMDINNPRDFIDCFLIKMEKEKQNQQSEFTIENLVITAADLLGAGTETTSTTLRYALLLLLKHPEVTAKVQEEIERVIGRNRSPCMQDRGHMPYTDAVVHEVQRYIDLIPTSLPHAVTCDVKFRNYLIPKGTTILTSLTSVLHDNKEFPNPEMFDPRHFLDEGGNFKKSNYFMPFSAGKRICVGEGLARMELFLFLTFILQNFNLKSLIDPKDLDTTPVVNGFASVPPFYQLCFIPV
# How it was run: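 Enzyme-substrate mix with proluciferin substrate (P450-Glo CYP2C19 system) preincubated with compounds 10 min at room temperature; NADPH regeneration solution added, 37C for 1 h; detection reagent stops reaction, luminescence read after 20 min. Ketoconazole positive control.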
# [14] = qHTS assay to identify small molecule agonists of the progesterone receptor (PR) signaling pathway - cell viability counter screen (AID 1346799; calls by dose curve; note: nearly all actives have a fitted effect of over 45% in size; note: potency is the fitted concentration of half-maximal effect)
# How it was run: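 In parallel with the beta-lactamase readout, cytotoxicity toward PR-UAS-bla HEK293T cells was measured by CellTiter-Glo luminescence following 16 hr compound incubation in 2% charcoal-stripped FBS medium.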
# [15] = biological target: Cytochrome P450 2D6 (Homo sapiens) (UniProt P10635); assay: Cytochrome P450 Family 2 Subfamily D Member 6 (CYP2D6) small molecule antagonists: luciferase reporter qHTS assay (AID 1671196); note: nearly all actives have a fitted effect of over 50% in size; note: potency is the fitted concentration of half-maximal effect
# Sequence of UniProt P10635 (P10635 whole entry, looked up): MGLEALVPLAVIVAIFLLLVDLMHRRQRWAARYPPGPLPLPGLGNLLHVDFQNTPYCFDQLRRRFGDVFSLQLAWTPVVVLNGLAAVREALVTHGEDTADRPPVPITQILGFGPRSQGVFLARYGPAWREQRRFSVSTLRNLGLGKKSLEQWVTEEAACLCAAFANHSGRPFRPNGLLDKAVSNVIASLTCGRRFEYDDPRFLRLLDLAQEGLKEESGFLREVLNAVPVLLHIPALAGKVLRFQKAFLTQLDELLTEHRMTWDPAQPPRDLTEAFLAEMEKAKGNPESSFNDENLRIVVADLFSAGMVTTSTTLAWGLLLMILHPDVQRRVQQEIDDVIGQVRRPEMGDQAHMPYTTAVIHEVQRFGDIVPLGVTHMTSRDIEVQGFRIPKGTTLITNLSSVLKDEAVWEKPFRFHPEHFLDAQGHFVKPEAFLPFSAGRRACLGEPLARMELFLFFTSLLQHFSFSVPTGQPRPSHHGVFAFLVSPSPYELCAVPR
# How it was run: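 CYP2D6 activity was followed as luminescence from its luciferin product after a 1 h NADPH-driven reaction at room temperature. Enzyme-substrate mix and compound were pre-incubated for 10 min, and the signal was read 20 min after adding detection reagent.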
# [16] = biological target: Cytochrome P450 2C9 (Homo sapiens) (UniProt P11712); assay: Cytochrome P450 Family 2 Subfamily C Member 9 (CYP2C9) small molecule antagonists: luciferase reporter qHTS assay (AID 1671198); note: potency is the fitted concentration of half-maximal effect; nearly all actives have a fitted effect of over 50% in size
# Sequence of UniProt P11712 (P11712 whole entry, looked up): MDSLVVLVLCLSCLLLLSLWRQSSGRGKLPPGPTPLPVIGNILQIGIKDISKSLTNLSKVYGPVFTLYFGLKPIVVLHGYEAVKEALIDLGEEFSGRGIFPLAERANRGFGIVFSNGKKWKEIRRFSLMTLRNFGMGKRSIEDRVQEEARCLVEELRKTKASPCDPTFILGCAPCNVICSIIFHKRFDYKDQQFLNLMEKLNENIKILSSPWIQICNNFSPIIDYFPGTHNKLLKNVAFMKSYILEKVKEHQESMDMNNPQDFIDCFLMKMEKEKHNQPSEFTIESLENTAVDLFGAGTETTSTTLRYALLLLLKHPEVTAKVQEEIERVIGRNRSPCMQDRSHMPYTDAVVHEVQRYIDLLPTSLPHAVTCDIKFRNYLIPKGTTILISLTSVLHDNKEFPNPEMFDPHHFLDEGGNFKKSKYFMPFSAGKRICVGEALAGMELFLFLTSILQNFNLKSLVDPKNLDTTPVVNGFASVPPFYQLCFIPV
# How it was run: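 CYP2C9 activity was measured with a P450-Glo proluciferin substrate. Enzyme–substrate mix was held with compound for 10 min at room temperature, then NADPH regeneration solution was added for 1 h at 37C. Luciferin product was read as luminescence.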
# [17] = biological target: Estrogen receptor beta (Homo sapiens) (UniProt Q92731); assay: qHTS assay to identify small molecule antagonists of the estrogen receptor beta (ER-beta) signaling pathway (AID 1259378; active = well fitted inhibition curve with a large enough effect in the signal ratio in the repeat runs, not every such curve was filed as active; inconclusive = weak or mixed curves, or effect the other way; inactive = no such curve, though single readings can be large or run the other way; the % refers to the signal ratio; note: % is set by controls: 0 for no effect and ±100 for the full control effect); conditions: ER-beta-UAS-bla HEK293T, beta-lactamase FRET ratio, 16 h; activity, negative = inhibition: at 92.4 µM (top of the series) unless noted
# Sequence of UniProt Q92731 (Q92731 whole entry, looked up): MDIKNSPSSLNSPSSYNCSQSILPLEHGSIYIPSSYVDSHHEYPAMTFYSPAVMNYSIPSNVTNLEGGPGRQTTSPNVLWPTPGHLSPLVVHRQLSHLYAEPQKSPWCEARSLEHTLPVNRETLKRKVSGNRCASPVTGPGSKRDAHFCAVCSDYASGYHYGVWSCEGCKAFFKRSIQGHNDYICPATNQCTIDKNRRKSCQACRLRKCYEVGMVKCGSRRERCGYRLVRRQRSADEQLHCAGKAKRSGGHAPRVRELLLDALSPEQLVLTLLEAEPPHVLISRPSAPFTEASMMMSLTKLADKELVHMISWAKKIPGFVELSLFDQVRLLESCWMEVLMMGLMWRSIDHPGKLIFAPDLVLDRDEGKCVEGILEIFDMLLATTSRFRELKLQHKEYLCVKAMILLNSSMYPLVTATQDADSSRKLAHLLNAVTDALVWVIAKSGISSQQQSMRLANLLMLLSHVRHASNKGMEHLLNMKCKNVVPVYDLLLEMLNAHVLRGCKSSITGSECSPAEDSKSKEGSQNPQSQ
# How it was run: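 ER-beta-UAS-bla HEK293T (GripTite) cells in 2% charcoal-stripped FBS medium were preincubated 6 hr at 37C, dosed with compound, then stimulated with 1 nM E2 (final) for 16 hr; beta-lactamase reporter read by B/G FRET fluorescence after 2 hr substrate loading.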
# [18] = biological target: Estrogen receptor (Homo sapiens) (UniProt P03372); assay: qHTS assay to identify small molecule agonists of the estrogen receptor alpha (ER-alpha) signaling pathway using the BG1 cell line (AID 743079); conditions: BG1Luc4E2 cells, ERE-luciferase agonist, 22 h; activation: at 70.3 µM (top of the series) unless noted; note: % is set by controls: 0 for no effect and ±100 for the full control effect; nearly all actives have a fitted effect of over 20% in size
# [19] = biological target: Vitamin D3 receptor (Homo sapiens) (UniProt P11473); assay: qHTS assay to identify small molecule antagonists of the vitamin D receptor (VDR) signaling pathway (AID 743223; active = well fitted inhibition curve with a large enough effect in the signal ratio in the repeat runs, not every such curve was filed as active; inconclusive = weak or mixed curves, or effect the other way; inactive = no such curve, though single readings can be large or run the other way; the % refers to the signal ratio; note: % is set by controls: 0 for no effect and ±100 for the full control effect); conditions: VDR-UAS-bla HEK293T, beta-lactamase FRET ratio, 16 h; activity change, negative = inhibition: at 61 µM (top of the series) unless noted
# How it was run: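 Quantitative HTS in VDR-bla reporter cells stimulated with 1alpha,25-dihydroxyvitamin D3, 3 nM final. Compound exposure 16 h, 37C, 5% CO2. Read-out: beta-lactamase FRET substrate fluorescence, 2 h RT.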
# Tags give direction and shape of the fitted curve or compound fluorescence and quenching.
compound,measurement,setting,value
CN1C(=O)CC(c2ccccc2)C1=O (configuration not stated),Potency,[1],"inconclusive: 0.596 µM [activator, single point]"
same,Potency,[2],"inconclusive: 0.596 µM [rising, single point]"
same,Potency,[3],inactive
same,Potency,[4],"inconclusive: 33.5 µM [rising, single point]"
same,Potency,[5],inactive
same,Potency,[6],"inconclusive: 33.5 µM [rising, single point]"
same,"ratio activity, negative = inhibition",[7],inconclusive: 1.47%
same,Potency,[8],inactive
same,Potency,[9],inactive
CC(C)=CCC/C(C)=C/C#N,Potency,[1],inactive
same,"ratio activity, negative = MMP loss",[2],inconclusive: 16.9% [at 95.3 µM]
same,Potency,[4],"inconclusive: 25.2 µM [cytotoxic, partial curve, poor fit]"
same,Potency,[5],"inconclusive: 71 µM [cytotoxic, single point]"
same,"ratio activity, negative = inhibition",[7],inconclusive: 12.2% [at 81.1 µM]
same,activation,[10],inconclusive: -1.16% [at 94.8 µM]
same,activation,[8],inconclusive: 5.23% [phenotype inactive] [at 94.8 µM]
same,Potency,[11],"inconclusive: 71 µM [inhibitor, single point]"
same,Potency,[12],inactive
same,Potency,[13],"inconclusive: 92.6 µM [inhibitor, single point]"
same,Potency,[9],"inconclusive: 46.4 µM [inhibitor, partial curve]"
O=C(O)c1ccccc1C(=O)OCc1ccccc1,Potency,[1],inactive
same,Potency,[2],"inconclusive: 12.2 µM [activator, partial curve, poor fit]"
same,Potency,[3],inactive
same,Potency,[8],active: 48.6 µM
same,Potency,[14],inactive
same,Potency,[15],"inconclusive: 39.9 µM [inhibitor, partial curve]"
same,Potency,[16],"inconclusive: 63.3 µM [inhibitor, partial curve]"
O=C1C(c2[nH]c3ccccc3c2O)=Nc2ccccc21,Potency,[2],"active: 4.22 µM and inconclusive: 1.22 µM [activator, full curve, poor fit]"
same,"activity change, negative = inhibition",[3],inconclusive: -3.69% and inconclusive: 4.23%
same,Potency,[4],"inconclusive: 1.08 µM [rising, full curve, poor fit]"
same,Potency,[10],active: 18.8 µM
same,activation,[10],inconclusive: 13%
same,Potency,[8],inconclusive: 33.5 µM [activator]
same,Potency,[17],inactive
same,Potency,[14],"inconclusive: 68.4 µM [rising, single point]"
CN1CCN(c2cc3c(nn2)Oc2ccccc2N3C)CC1,"ratio activity, negative = inhibition",[7],inconclusive: -1.03% [at 29.1 µM]
same,Potency,[10],inactive
same,Potency,[8],active: 5.8 µM
same,"activity, negative = inhibition",[17],inconclusive: 12.8% [at 19 µM]
same,Potency,[15],"inconclusive: 4.77 µM [inhibitor, full curve]"
same,"activity change, negative = inhibition",[9],inactive: -0.0691% [at 23.6 µM]
O=C(NCCc1c[nH]c2ccccc12)c1cccnc1,"ratio activity, negative = MMP loss",[2],inconclusive: -33.8%
same,Potency,[7],inactive
same,Potency,[10],inactive
same,Potency,[8],active: 21.1 µM
same,Potency,[17],inactive
same,Potency,[15],"inconclusive: 30.9 µM [inhibitor, partial curve]"
same,Potency,[16],"inconclusive: 12.3 µM [inhibitor, full curve]"
Cc1cc2cc3c(C)cc(=O)oc3c(C)c2o1,"ratio activity, negative = MMP loss",[2],inconclusive: 25.4% [at 39.1 µM]
same,Potency,[8],"inconclusive: 5.96 µM [activator, partial curve]"
same,"activity change, negative = inhibition",[12],inconclusive: -33.7% [at 42.5 µM]
same,Potency,[15],inactive
same,Potency,[13],inactive
CC(C)OC(=O)COc1ccc(Cl)cc1Cl,Potency,[4],"inconclusive: 42.6 µM [rising, partial curve]"
same,Potency,[6],"inconclusive: 21.7 µM [rising, partial curve]"
same,Potency,[18],inactive
same,Potency,[7],inactive
same,activation,[10],inconclusive: 4.66%
same,activation,[8],inconclusive: 8.6% [phenotype inactive]
same,Potency,[14],inactive
same,Potency,[15],"inconclusive: 35 µM [inhibitor, partial curve] and inconclusive: 89.4 µM [inhibitor, partial curve, poor fit]"
same,Potency,[16],active: 35 µM and active: 35.6 µM
CC12CCC(C1)C(C)(C)C2O (configuration not stated),Potency,[2],inactive
same,Potency,[7],inactive
same,activation,[10],inconclusive: -2.79%
same,Potency,[8],inactive
same,Potency,[15],inactive
OC[C@H]1O[C@@H](O[C@H]2[C@H](O)[C@@H](O)[C@H](O)O[C@@H]2CO)[C@H](O)[C@@H](O)[C@H]1O,Potency,[2],"inconclusive: 4.33 µM [activator, partial curve, poor fit]"
same,Potency,[4],inactive
same,"ratio activity, negative = inhibition",[7],inconclusive: 3.33%
same,Potency,[8],inactive
c1ccc2c(c1)CCCC2C1=NCCN1 (configuration not stated),"ratio activity, negative = MMP loss",[2],inconclusive: -4.03%
same,"activity change, negative = inhibition",[19],inconclusive: 1.64%
same,Potency,[8],inactive
same,Potency,[11],"inconclusive: 0.106 µM [inhibitor, single point]"
same,Potency,[12],inactive
same,Potency,[14],inactive
